Test results from publication PMC4336329 (PLoS ONE, 2015).
The campaign covered roughly 310,000 compounds. About 14,000 (4.5%) showed an effect of 50% or more. The effect is printed as a negative number. The list shows a part of the results.

molecular target: human ether-à-go-go-related gene (hERG) potassium channel (human, UniProt Q12809); test: primary screen, population patch clamp on CHO cells stably expressing hERG
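Also: peak tail current of the secondary pulse compared with the same well before compound.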

human ether-à-go-go-related gene (hERG) potassium channel, sequence (Q12809 whole entry, looked up): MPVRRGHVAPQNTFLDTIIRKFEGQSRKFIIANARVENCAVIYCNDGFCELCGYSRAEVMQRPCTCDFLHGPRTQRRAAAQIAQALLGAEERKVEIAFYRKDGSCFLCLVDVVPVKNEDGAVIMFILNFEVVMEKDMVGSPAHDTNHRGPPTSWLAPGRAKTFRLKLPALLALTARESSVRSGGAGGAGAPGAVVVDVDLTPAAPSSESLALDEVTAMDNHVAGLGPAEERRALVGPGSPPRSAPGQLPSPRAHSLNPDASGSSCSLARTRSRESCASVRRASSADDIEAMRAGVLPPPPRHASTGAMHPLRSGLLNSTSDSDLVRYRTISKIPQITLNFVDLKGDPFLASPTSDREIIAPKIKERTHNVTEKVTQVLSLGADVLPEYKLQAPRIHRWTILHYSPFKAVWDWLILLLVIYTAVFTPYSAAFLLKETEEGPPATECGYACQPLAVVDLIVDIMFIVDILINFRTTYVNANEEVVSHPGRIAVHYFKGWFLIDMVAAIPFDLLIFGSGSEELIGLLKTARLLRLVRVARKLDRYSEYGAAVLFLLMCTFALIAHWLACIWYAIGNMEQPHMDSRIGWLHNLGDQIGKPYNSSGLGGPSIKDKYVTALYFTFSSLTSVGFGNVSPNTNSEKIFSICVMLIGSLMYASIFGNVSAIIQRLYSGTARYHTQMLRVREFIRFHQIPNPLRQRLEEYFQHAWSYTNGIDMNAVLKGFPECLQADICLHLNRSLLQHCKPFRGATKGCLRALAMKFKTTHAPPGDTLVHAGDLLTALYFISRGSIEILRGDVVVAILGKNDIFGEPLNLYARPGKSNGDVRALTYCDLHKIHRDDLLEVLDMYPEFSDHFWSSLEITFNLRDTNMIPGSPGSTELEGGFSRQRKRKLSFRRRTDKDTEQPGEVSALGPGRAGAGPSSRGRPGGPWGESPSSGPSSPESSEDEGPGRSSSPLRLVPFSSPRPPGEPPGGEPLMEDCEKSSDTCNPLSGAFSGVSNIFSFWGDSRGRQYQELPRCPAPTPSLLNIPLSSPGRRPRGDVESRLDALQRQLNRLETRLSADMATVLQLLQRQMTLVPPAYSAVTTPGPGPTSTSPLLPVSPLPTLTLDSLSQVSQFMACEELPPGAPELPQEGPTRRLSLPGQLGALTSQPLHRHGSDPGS

| Compound | hERG current change (%, negative = inhibition) at 10uM [%] |
| --- | --- |
| Cc1cc(S(=O)(=O)N2CCCCC2CCNC(=O)C(=O)NCC2CCCO2)ccc1F (centres unmarked) | -39.3 |
| Cn1c(=O)c2c(nc(NCCO)n2C)n(C)c1=O | 15.9 |
| COc1ccc(Br)c(C(=O)N2CCN(S(=O)(=O)/C=C/c3ccccc3)CC2)c1 | -58.8 |
| O=C(c1cn(Cc2ccccc2)c2ccccc12)N1CCCCC1 | -45 |
| CC(C(=O)Nc1ccccc1-c1ccccc1)N(C)Cc1nc2ccccc2c(=O)[nH]1 (centres unmarked) | -12.5 |
| CCCCNC(=O)C(=O)NCCCn1ccnc1 | -10.2 |
| COc1ccc(C(CNC(=O)c2ccc3c(c2)OCCO3)N(C)C)cc1 (centres unmarked) | 11.3 |
| COc1cccc(OCC(O)CNC(=O)c2oc3ccc(C)cc3c2C)c1 (centres unmarked) | -1.46 |
| Cc1ccc(NC(=O)CN(C)C(=O)COc2ncnc3ccc(Br)cc23)cc1 | 11.4 |
| O=C(O)CCCN1C(=O)/C(=C/c2ccncc2)SC1=S | 13.1 |
| Cc1c(Br)c([N+](=O)[O-])nn1C(C)C(=O)NCc1cccs1 (centres unmarked) | -17 |
| N#Cc1c(NC(=O)CN2CCN(C(=O)c3ccco3)CC2)sc2c1CCCCC2 | -32.9 |
| CN(CC(=O)Nc1cccc(F)c1)C(=O)c1ccc(N2CCOCC2)c([N+](=O)[O-])c1 | -35.7 |
| CCC(C(=O)N1CCN(S(C)(=O)=O)CC1)c1ccccc1 (centres unmarked) | -0.12 |
| Cc1ccc(NC(=O)N2CCC(C(=O)c3ccc(F)cc3)CC2)cc1 | -3.84 |
| CCOc1ccc(S(=O)(=O)Nc2cccc(C(=O)NCCCN3CCCC3=O)c2)cc1 | -4.82 |
| Cc1ccc(Nc2ccc([N+](=O)[O-])ccc2=O)cc1 | 16.2 |
| COc1ccc(Cl)cc1NC(=O)C12CCC(C)(C(=O)O1)C2(C)C (centres unmarked) | 5.21 |
| Cc1ccc(-n2sc3ccccc3c2=O)cc1S(=O)(=O)N1CCCCC1 | 16.3 |

| Compound | hERG current change (%, negative = inhibition) at 10uM [%] |
| --- | --- |
| COc1cccc(-c2c(-c3cc(OC)cc(OC)c3)n(C)c3ccc(-c4ccc(OC)nc4)cc23)c1 | 6.9 |
| CC(C)N(Cc1cc2ccccc2[nH]c1=O)C(=O)C(C)(C)C | 6.86 |
| COC(=O)CN1C(=S)N(c2ccc(F)cc2)C(=O)C1CC(=O)Nc1ccc(F)cc1 (centres unmarked) | -33.6 |
| CN(CC(=O)Nc1ccc(C(N)=O)cc1)CC(=O)Nc1ccccc1Cl | -5.04 |
| CCOC(=O)c1nn(-c2cccc(Cl)c2)c(C)c1C(C)=O | -3.38 |
| COCCSc1ccccc1C(=O)Nc1cccnc1 | 3.15 |
| C=CCNC(=O)c1n[nH]c2c1CC(C(C)(C)CC)CC2 (centres unmarked) | 7 |
| COCCCn1c(=O)c2ccccc2n(CC(=O)Nc2ccc3c(c2)OCCO3)c1=O | 12.4 |
| Cc1nn(CC2CC2)c(=O)n1N(C)c1ncc(C(F)(F)F)cc1Cl | -10 |
| CC(=O)N1CCC(C(=O)Nc2ccc(S(=O)(=O)N3CCC(C)CC3)cc2)CC1 | -3.19 |
| O=C(NC(=S)N(Cc1ccccc1)Cc1ccccc1)c1ccccc1F | 18.5 |
| COc1cccc(C2C3=C(CC(C)(C)CC3=O)Nc3cc(OC)c(OC)cc32)c1 (centres unmarked) | 12.8 |
| CCn1nc(C)c(NC(=O)CCCSc2nc(-c3ccco3)cc(C(F)(F)F)n2)c1C | -6.15 |
| C=C(C)Cn1c(NCCC)nc2c1c(=O)n(C)c(=O)n2C | 0.937 |
| COc1ccc(Cl)cc1NC(=S)Nc1cccnc1 | 12.3 |
| CCOC1=C/C(=C/c2c(N)n3oc(C)cc3nc2=O)C=CC1=O | 16.7 |
| CCOC(=O)c1cnc(-n2cc(C)cn2)nc1NCc1ccc2c(c1)OCO2 | -15.6 |
| CCCC(=O)n1nc(-c2ccc(Cl)cc2)nc1SC | 22.1 |
| CCCOc1ccc(Cc2nn[nH]n2)cc1 | 10.8 |

| Compound | hERG current change (%, negative = inhibition) at 10uM [%] |
| --- | --- |
| COc1cccc(NC(=O)Cn2c3ccc(F)cc3c3nc4n(c(=O)c32)CCS4)c1 | 12.1 |
| Cc1ccc(C(=O)Cn2c(N3CCOCC3)nc3c2c(=O)n(C)c(=O)n3C)cc1 | -1.58 |
| CCCCNC(=O)C1CC(=O)N(CCc2ccc(C)cc2)C1 (centres unmarked) | -0.519 |
| N#CCCN1CCN(S(=O)(=O)c2ccc3c(c2)CCC3)CC1 | 6.04 |
| CS(=O)(=O)N(CC(=O)Nc1ccccc1-c1ccccc1)c1cccc(F)c1 | 8.25 |
| C/C(O)=c1/c(=O)nc2cccc3c2=c1c1ccccc1c3=O | -8.5 |
| CCN(CC)S(=O)(=O)c1cccc(C(=O)N2CCCc3ccccc32)c1 | -4.48 |
| Cc1cc(C)nc(SCC(=O)c2ccc3c(c2)OCCO3)n1 | -13.3 |
| COc1cc2c(cc1OC)CN(CC(=O)NC(=O)NC(C)(C)C)CC2 | 6.61 |
| Cc1ccc(CS(=O)(=O)c2ccc(C(=O)N3CCCCC3)cc2[N+](=O)[O-])cc1 | 0.513 |
| CCCn1c2ccccc2c2cnn(CC(=O)NCCCN3CCCCC3CC)c(=O)c21 (centres unmarked) | -62.2 |
| Cc1cc(-c2nc(-c3ccc(C(C)(C)C)cc3)no2)no1 | 16.4 |
| COC(=O)c1cc(NC2c3ccccc3C(=O)N2c2cccnc2)cc(C(=O)OC)c1 (centres unmarked) | -27.7 |
| CC(C)Oc1ccc(CNC(=O)C2CCN(C(=O)N3CCOc4ccccc43)CC2)cc1 | -17.8 |
| COc1cc(N=Nc2ccc3ccccc3c2)ccc1O | 9.15 |
| COc1ccccc1N1CCN(C(=O)C(=O)c2c(C)[nH]c3ccccc23)CC1 | 9.07 |
| O=C(NCc1ccc(F)cc1)c1ccc(S(=O)(=O)N2CCCCC2)cc1 | 8.36 |
| Cc1ncc([N+](=O)[O-])n1CCN1C(=O)c2ccccc2C1=O | 3.77 |
